Source: patent US20260193317A1, “COMBINATION THERAPY WITH ACTRIIB RECEPTOR VARIANTS AND GLP-1 AGONISTS” (35PHARMA Inc., priority 2023, published 2026)

T1: recombinant human activin A (human, UniProt P08476 311-426)
T1 sequence (looked up): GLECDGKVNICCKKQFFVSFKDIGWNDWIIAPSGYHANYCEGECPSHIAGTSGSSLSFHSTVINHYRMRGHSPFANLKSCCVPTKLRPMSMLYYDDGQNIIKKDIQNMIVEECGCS

T2: activin B (UniProt P09529 293-407)
T2 sequence (looked up): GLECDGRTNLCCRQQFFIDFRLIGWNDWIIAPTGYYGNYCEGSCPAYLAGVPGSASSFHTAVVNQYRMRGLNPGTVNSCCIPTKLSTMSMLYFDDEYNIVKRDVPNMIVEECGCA

T3: BMP-9 (UniProt Q9UK05 320-429)
T3 sequence (looked up): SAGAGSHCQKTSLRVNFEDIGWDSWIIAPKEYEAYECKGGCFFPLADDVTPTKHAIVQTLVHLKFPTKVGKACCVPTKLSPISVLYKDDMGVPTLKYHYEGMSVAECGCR

T4: BMP-10 (UniProt O95393 317-424)
T4 sequence (looked up): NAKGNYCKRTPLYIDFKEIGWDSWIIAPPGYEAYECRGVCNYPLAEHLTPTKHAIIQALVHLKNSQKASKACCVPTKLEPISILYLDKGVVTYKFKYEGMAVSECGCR

T5: BMP-10 (Homo sapiens, UniProt O95393)
T5 sequence (O95393 317-424): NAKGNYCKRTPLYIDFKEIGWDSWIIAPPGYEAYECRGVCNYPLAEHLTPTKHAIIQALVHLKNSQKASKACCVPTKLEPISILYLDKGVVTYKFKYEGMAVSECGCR

T6: activin A (Homo sapiens, UniProt P08476)
T6 sequence (P08476 311-426): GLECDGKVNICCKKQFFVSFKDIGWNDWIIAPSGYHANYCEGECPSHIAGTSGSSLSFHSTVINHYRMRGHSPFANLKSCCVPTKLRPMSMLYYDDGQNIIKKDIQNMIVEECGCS

T7: BMP-9 (Homo sapiens, UniProt Q9UK05)
T7 sequence (Q9UK05 320-429): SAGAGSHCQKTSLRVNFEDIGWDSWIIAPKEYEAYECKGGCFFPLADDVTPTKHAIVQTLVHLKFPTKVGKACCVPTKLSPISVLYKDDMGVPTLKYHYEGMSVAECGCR


Experiments:
[1] = molecular target: T1, recombinant human activin A; experiment: cell-based or functional assay
[2] = molecular target: T2, activin B; experiment: cell-based or functional assay
[3] = molecular target: T3, BMP-9; experiment: cell-based or functional assay
[4] = molecular target: T4, BMP-10; experiment: cell-based or functional assay
[5] = molecular target: GDF-11 (UniProt O95390 299-407); experiment: cell-based or functional assay
UniProt O95390, sequence (O95390 299-407 limits assumed): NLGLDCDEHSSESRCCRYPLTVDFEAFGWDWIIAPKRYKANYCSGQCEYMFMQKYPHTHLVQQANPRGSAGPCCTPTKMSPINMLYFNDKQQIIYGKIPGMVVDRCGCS

[6] = SEC-HPLC monomer and HMW content of purified fusion proteins; assay type: physicochemical; details: after Protein A purification
Text: Given that protein aggregation can be indicative of reduced conformational stability and decreased activity, Size-Exclusion Chromatography-High Performance Liquid Chromatography (SEC-HPLC) was used to determine the purity of each ActRIIB-ECD construct. This method measured the percentage of intact monomeric species as well as the presence of aggregates and/or degradation products.
All proteins expressed efficiently in CHO and/or 293 cells and purification efficiency of each using Protein A affinity chromatography was similar.

[7] = Single-injection body weight gain in wild-type mice; assay type: in vivo; details: single 25 mg/kg subcutaneous injection, after 4 days, vs vehicle
Procedure: To investigate the target engagement of exemplary ActRIIB-ECD polypeptide constructs in vivo, mice (n=6/group) were injected with given agents (25 mg/kg, subcutaneous injection), and sacrificed after 4 days to assess body weight gain.

[8] = molecular target: T5, BMP-10; experiment: BMP-reporter HepG2 cell-based assay: BMP-10 neutralization
Procedure: Characterization of the BMP-9 and BMP-10 inhibition potency (IC50) of the fusion proteins was performed using a second cell-based reporter assay. Human hepatic HepG2 cells were transfected with a SEAP-encoding plasmid, in which SEAP expression is under the control of the murine Id1 promoter. A stable pool was generated from this transfection. Cells were grown in EMEM, containing 10% heat-inactivated FBS and 200 μg/mL zeocin (hereafter, “HepG2 growth medium”). […] For all assays, cells were seeded in 96-well plates at a confluence of 100,000 cells per well in HepG2 growth medium. Cells were left to attach for 10 minutes at RT prior to being transferred to a 37° C. incubator (5% CO2) overnight. The next day, treatments were prepared in EMEM (2.5% heat-inactivated FBS and with no selection agents) by combining the appropriate concentration of agent with BMP-9 or BMP-10 for 30 min at RT (shaking at 150 rpm). Treatments were conducted in EMEM (2.5% heat-inactivated FBS and with no selection agents), and the final concentration of BMP-9 and BMP-10 was 2 ng/mL and 40 ng/mL, respectively. HepG2 growth medium was removed from the culture plates, and cells were treated with the appropriate mixes of fusion protein and cytokine. Treatment duration was for 20-24 h at 37° C. (5% CO2). All treatments were performed in technical duplicates and at least one or two independent experiments were conducted for each cytokine. At the end of the treatment period, supernatants were transferred to a new plate, and centrifuged at 300 RPM for 3 min. Forty microlitres of supernatant from each condition was transferred to a new plate, onto which 180 μL of Quanti-Blue reagent was added. Quanti-Blue reagent was prepared following the manufacturer's instructions. Samples were incubated for 5-6 h with Quanti-Blue reagent at 37° C. At the end of the incubation, absorbance was read at 650 nm. The data were plotted in GraphPad Prism, which was used to calculate IC50 values as a non-linear regression.

[9] = molecular target: T6, activin A; experiment: Small-scale activin A ELISA with CHO supernatants; details: 1 μg/mL protein, 30 ng/mL activin A, loss of signal = binding
Procedure, shortened: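 ActRIIB-ECD-Fc fusions were expressed transiently in CHO cells and harvested after 7 days. Supernatant protein at 1 μg/mL final was premixed with human activin A at 30 ng/mL final and incubated 1 h at RT on an anti-activin A antibody plate. Loss of signal was expressed as % of wild-type ActRIIB-Fc.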

[10] = test system: TGFβ superfamily ligands; experiment: Neutralization profile across TGFβ superfamily ligands (HEK293 and HepG2 reporter assays, summary); assay type: cell-based, human
Procedure: Potency testing by neutralization on cell-based assays. Characterization of the activin A, activin B, GDF-8, and GDF-11 inhibition potency (IC50) of the fusion proteins was performed using a cell-based reporter assay. TGFβ-reporter HEK293 cells were obtained from InvivoGen (San Diego, CA, cat. no. hkb-tgfb) and were maintained following the manufacturer's instructions. Briefly, cells were grown in high-glucose DMEM, containing 10% heat-inactivated FBS, 30 μg/mL blasticidin, 250 μg/mL hygromycin B, and 100 μg/mL zeocin (hereafter, “growth medium”). Once the cells reached 70-80% confluence, they were detached in growth medium by gently tapping on the flask. For all assays, cells were seeded in 96-well plates at a density of 20,000 cells per well in growth medium. Cells were left to attach for 10 minutes at room temperature (RT) prior to being transferred to a 37° C. incubator (5% CO2) overnight. The next day, treatments were prepared by combining the appropriate concentration of agent with activin A, activin B, GDF-8, or GDF-11 for 30 min at RT (shaking at 150 rpm). Treatments were conducted in high-glucose DMEM (serum-free and with no selection agents), and the final concentration of cytokine (ligand) was 0.3 nM. Growth medium was removed from the culture plates, and cells were treated with the appropriate mixes of fusion protein and cytokine. Treatment duration was for 18-22 h at 37° C. (5% CO2). All treatments were performed in technical duplicates and at least one or two independent experiments were conducted for each cytokine. At the end of the treatment period, supernatants were transferred to a new plate, and centrifuged at 300 RPM for 3 min. Forty microlitres of supernatant from each condition was transferred to a new plate, into which 180 μL of Quanti-Blue reagent (InvivoGen, cat. no. rep-qbs) was added. Quanti-Blue reagent was prepared following the manufacturer's instructions. Samples were incubated for 45 min at 37° C. At the end of the incubation, absorbance was read at 650 nm. The data were plotted in GraphPad Prism, which was used to calculate IC50 values as a non-linear regression.
Characterization of the BMP-9 and BMP-10 inhibition potency (IC50) of the fusion proteins was performed using a second cell-based reporter assay. Human hepatic HepG2 cells were transfected with a SEAP-encoding plasmid, in which SEAP expression is under the control of the murine Id1 promoter. A stable pool was generated from this transfection. Cells were grown in EMEM, containing 10% heat-inactivated FBS and 200 μg/mL zeocin (hereafter, “HepG2 growth medium”). […] For all assays, cells were seeded in 96-well plates at a confluence of 100,000 cells per well in HepG2 growth medium. Cells were left to attach for 10 minutes at RT prior to being transferred to a 37° C. incubator (5% CO2) overnight. The next day, treatments were prepared in EMEM (2.5% heat-inactivated FBS and with no selection agents) by combining the appropriate concentration of agent with BMP-9 or BMP-10 for 30 min at RT (shaking at 150 rpm). Treatments were conducted in EMEM (2.5% heat-inactivated FBS and with no selection agents), and the final concentration of BMP-9 and BMP-10 was 2 ng/mL and 40 ng/mL, respectively. HepG2 growth medium was removed from the culture plates, and cells were treated with the appropriate mixes of fusion protein and cytokine. Treatment duration was for 20-24 h at 37° C. (5% CO2). All treatments were performed in technical duplicates and at least one or two independent experiments were conducted for each cytokine. At the end of the treatment period, supernatants were transferred to a new plate, and centrifuged at 300 RPM for 3 min. Forty microlitres of supernatant from each condition was transferred to a new plate, onto which 180 μL of Quanti-Blue reagent was added. Quanti-Blue reagent was prepared following the manufacturer's instructions. Samples were incubated for 5-6 h with Quanti-Blue reagent at 37° C. […]

[11] = molecular target: T7, BMP-9; experiment: Small-scale BMP-9 ELISA with CHO supernatants; assay type: binding; details: BMP-9 10 ng/mL

| Molecule | Activin A IC50; TGFβ-reporter HEK293 cells [1] | Activin B IC50; TGFβ-reporter HEK293 cells [2] | BMP-9 IC50; BMP-reporter HepG2 cells [3] | BMP-10 IC50; BMP-reporter HepG2 cells [4] | GDF-11 IC50; TGFβ-reporter HEK293 cells [5] | inhibition potency on BMP-10 relative to P75 [8] | activin A binding, ELISA signal relative to P75 [9] | BMP-9 binding, ELISA signal relative to P75 [11] | high molecular weight (HMW) content (SEC-HPLC) [6] | monomer content (SEC-HPLC) [6] | body weight gain [7] | inhibition of BMP-9 or BMP-10 [10] | improved potency on activin A, GDF-8, and GDF-11 relative to P75 [10] |
| --- | --- | --- | --- | --- | --- | --- | --- | --- | --- | --- | --- | --- | --- |
| P754 (Fc fusion) ETRECIYYNANWELERTNQSGLERCEGEQDKRLHCYASWRNSSGTIELVKKGCWLDDFNCYDRQECVAQEENPQVYFCCCEGNFCNERFTHLPEAGGPEVTYEPPPTGGGGSGGGGSGG[human IgG1 Fc and a few adjoining residues not spelt out] | 1.5 nM | 2.1 nM | 3.5 nM | 2.5 nM | 1.6 nM | – | – | – | – | – | – | – | – |
| P1185: hActRIIB L33Y G27E, 14 aa linker, IgG1-DL Fc; SEQ ID 197 (protein) ETRECIYYNANWELERTNQSGLERCEEEQDKRYHCYASWRNSSGTIELVKKGCWLDDFNCYDRQECVATEENPQVYFCCCEGNFCNERFTHLPEAGGPEVTYEPPPTGGGGSGGGGSGG[human IgG1 Fc and a few adjoining residues not spelt out] | – | – | – | – | – | unchanged or modestly reduced | – | – | 3% | 96% | statistically significant body weight gain | – | – |
| P1389: hActRIIB G27T, L33W, 19 aa linker, IgG1-DL Fc; SEQ ID 239 (protein) ETRECIYYNANWELERTNQSGLERCETEQDKRWHCYASWRNSSGTIELVKKGCWLDDFNCYDRQECVATEENPQVYFCCCEGNFCNERFTHLPEAGGPEVTYEPPPTGGGGSGGGGSGGGGSGG[human IgG1 Fc and a few adjoining residues not spelt out] | – | – | – | – | – | – | potent activin A binding | near-undetectable binding to BMP-9 | 3% | 97% | apparent body weight gain that did not reach statistical significance | minimal inhibition of either BMP-9 or BMP-10 | – |

More lines, main results first:

| Activin A IC50; TGFβ-reporter HEK293 cells [1] | Activin B IC50; TGFβ-reporter HEK293 cells [2] | BMP-9 IC50; BMP-reporter HepG2 cells [3] | BMP-10 IC50; BMP-reporter HepG2 cells [4] | GDF-11 IC50; TGFβ-reporter HEK293 cells [5] | inhibition potency on BMP-10 relative to P75 [8] | activin A binding, ELISA signal relative to P75 [9] | BMP-9 binding, ELISA signal relative to P75 [11] | Molecule | high molecular weight (HMW) content (SEC-HPLC) [6] | monomer content (SEC-HPLC) [6] | body weight gain [7] | inhibition of BMP-9 or BMP-10 [10] | improved potency on activin A, GDF-8, and GDF-11 relative to P75 [10] |
| --- | --- | --- | --- | --- | --- | --- | --- | --- | --- | --- | --- | --- | --- |
| – | – | – | – | – | – | – | near-undetectable binding to BMP-9 | P1406: hActRIIB L14E, L33W, 19 aa linker, IgG1-DL Fc; SEQ ID 245 (protein) ETRECIYYNANWEEERTNQSGLERCEGEQDKRWHCYASWRNSSGTIELVKKGCWLDDFNCYDRQECVATEENPQVYFCCCEGNFCNERFTHLPEAGGPEVTYEPPPTGGGGSGGGGSGGGGSGG[human IgG1 Fc and a few adjoining residues not spelt out] | 3% | 97% | apparent body weight gain that did not reach statistical significance | minimal inhibition of either BMP-9 or BMP-10 | – |
| – | – | – | – | – | – | potent activin A binding | near-undetectable binding to BMP-9 | P1409: hActRIIB L14Q, L33W, 19 aa linker, IgG1-DL Fc; SEQ ID 248 (protein) ETRECIYYNANWEQERTNQSGLERCEGEQDKRWHCYASWRNSSGTIELVKKGCWLDDFNCYDRQECVATEENPQVYFCCCEGNFCNERFTHLPEAGGPEVTYEPPPTGGGGSGGGGSGGGGSGG[human IgG1 Fc and a few adjoining residues not spelt out] | 2% | 98% | statistically significant body weight gain | minimal inhibition of either BMP-9 or BMP-10 | ~ 4 fold |
